Experimental data reported in PubChem BioAssay AID504444 (National Center for Advancing Translational Sciences (NCATS), 2011).
Screen size: about 360,000 compounds; about 7,500 (2.1%) were called active. Another 20% or so got no clear call; they are omitted. The call rests on the fitted dose curve; in most records, active means well fitted inhibition curve with a large enough effect; inconclusive means small, poorly fitted or top-dose-only effect, or effect the other way; inactive means flat fitted curve, though single readings scatter. The list shows a part of the results, in another mix than the full data. Some structures have more than one record in an assay (separate samples or runs), and their calls can disagree.

assay: Nrf2 qHTS screen for inhibitors; conditions: A549 ARE-Fluc reporter, luciferase luminescence, 18-24 h; series mostly up to 46 µM; activity change, negative = inhibition: at the top concentration; further: nearly all actives have a fitted effect of over 60% in size
How it was run: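 A549 ARE_Fluc cells, 5000/well, 5% FBS OPTI-MEM; compounds in dose-response, 18-24 h at 37 °C/5% CO2; CellTiter-Fluor viability read (Ex 405/Em 525), then BugLite luciferase luminescence = Nrf2 activity.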
On the % scale 0 is the no-effect control and ±100 the full control effect; potency means the concentration at half of the fitted maximal effect.

| Compound | Potency | activity change, negative = inhibition |
| --- | --- | --- |
| CCN(CC)C(=O)c1nn(-c2ccccc2)c2c1C1CCC2(C)C1(C)C (stereo not drawn) | active: 16.4 µM |  |
| COc1ccc(-c2ccc(C(C)=O)cc2)cc1C1C2C=CCC(C)C2C(=O)N1Cc1ccccc1 (stereo not drawn) |  | inactive: 14.7% |
| C[C@H]1CC[C@]2(O[C@@H](CCO)C[C@H](O)[C@H]2O)O1 |  | inactive: -0.254% |
| Cc1ccc(CN2CCC(CNC(=O)Nc3ccccc3F)CC2)cc1 |  | inactive: 13.8% |
| O=C(COCc1ccccc1)N[C@@H]1c2ccccc2CC[C@H]1OCc1ccccc1 |  | inactive: 9.83% |
| Cc1cc(C)cc(NS(=O)(=O)c2cc3[nH]c(=O)c(=O)[nH]c3cc2C)c1 |  | inactive: 8.24% |
| COc1cc2c(C(=O)N3CCN(c4cccc(Cl)c4)CC3)cn(C)c(=O)c2cc1OC |  | inactive: -8.65% |
| COc1ccc(NS(=O)(=O)c2ccc(NC(=O)c3ccc(Br)cc3)cc2)nn1 | active: 20.6 µM |  |
| CCN(c1ccc(OC)cc1)S(=O)(=O)c1nnc(NC(=O)COc2ccc(F)cc2)s1 |  | inactive: -28.4% |
| CC1C(=O)Nc2ccc(S(=O)(=O)Nc3ccccc3Br)cc2NC1=O (stereo not drawn) |  | inactive: -3.51% |
| CCN1CCN(C(=O)c2ccc3c(c2)N(Cc2ccccc2)C(=O)c2ccccc2S3=O)CC1 (stereo not drawn) |  | inactive: -3.38% |
| O=C(O)c1cc(O)c2c(c1)[C@@H]([C@H]1c3cc(C(=O)O)cc(O)c3C(=O)c3c(O[C@@H]4O[C@H](CO)[C@@H](O)[C@H](O)[C@H]4O)cccc31)c1cccc(O[C@@H]3O[C@H](CO)[C@@H](O)[C@H](O)[C@H]3O)c1C2=O |  | inactive: 5.59% |
| Cc1ccc2c(c1)S/C(=C/c1ccc[n+](CCO)c1)N2C | active: 1.16 µM |  |
| Cc1cccc(NS(=O)(=O)c2ccc(-n3cccn3)cc2)c1C |  | inactive: -24.8% |
| COC(C[C@H]1O[C@@H]1[C@H](O)[C@H](C)OCc1ccccc1)OC |  | inactive: 3.7% |
| O=C(Cn1cnc2ccccc21)Nc1ccc2c(c1)OCCCO2 | active: 13 µM |  |
| O=C(CCn1c(=O)c2cccn2c2ccc(F)cc21)NCCc1ccccc1 |  | inactive: 20.6% |
| O=C(CCn1ccc2cc(S(=O)(=O)N3CCCC3)ccc21)NCc1cccc(F)c1 |  | inactive: -6.94% |
| COC(=O)c1cc(S(=O)(=O)NCC2CCN(Cc3cccc(F)c3)CC2)c[nH]1 |  | inactive: 10.1% |
| Nc1nc(NCc2cccc(Cl)c2)c2[nH]cnc2n1 |  | inactive: 21.1% |

| Compound | Potency | activity change, negative = inhibition |
| --- | --- | --- |
| O=C(CSc1nnc(Cc2csc(Nc3cccc(Cl)c3)n2)o1)N1CCc2ccccc21 |  | inactive: -11.3% |
| CC(=O)c1ccc(NC(=O)c2ccc(NC(=O)CCS(=O)(=O)c3cccs3)cc2)cc1 |  | inactive: 4.1% |
| O=[N+]([O-])c1ccc(Oc2ccc(Oc3ccc(C(F)(F)F)cn3)cc2)nc1 | active: 16.4 µM |  |
| CN1CCSc2ccc(C(=O)NCc3ccccc3F)cc21 |  | inactive: 1.87% |
| CCOC(=O)[C@H]1[C@H]2COc3cc(OC)ccc3[C@@H]2N2C(=O)N(c3cccc(F)c3)C(=O)[C@@]12C |  | inactive: -8.59% |
| O=C(Nc1cccc(F)c1)c1cccc2c1C(=O)N(C1CCCCC1)C2 |  | inactive: 12.1% |
| CCOc1ccc(CCNC(=O)c2cc3ccccn3n2)cc1OCC | active: 20.6 µM |  |
| Cc1ccc2nc(-c3ccco3)c(Nc3ccccc3)n2c1 |  | inactive: 8.44% |
| O=C(C1CCC(CNS(=O)(=O)c2cccs2)CC1)N1CCN(c2ccc(Cl)cc2)CC1 (stereo not drawn) | active: 8.2 µM |  |
| Cc1ccsc1/C=C1\SC(N2CC(C)OC(C)C2)=NC1=O (stereo not drawn) |  | inactive: -19.1% |
| CC1=NN(c2ccccc2)C(=O)/C1=C\C=C1\N(C)c2ccccc2C1(C)C |  | inactive: -16.7% |
| Cc1ccccc1NC(=O)C1CCN(S(=O)(=O)c2cccc3nonc23)CC1 |  | inactive: -10.3% |
| CCOC(=O)CCCC(=O)Nc1ncnc2c1C(c1ccccc1)c1c(ccc3ccccc13)O2 (stereo not drawn) |  | inactive: 23.1% |
| COc1ccc(C(=O)N2CCN(CCc3ccccn3)CC2)cc1 |  | inactive: 0.132% |
| COc1ccccc1/C=C/C=N/n1c(C2CCCCC2)n[nH]c1=S |  | inactive: -7.58% |
| Cn1cc(C(=O)N2CCN(c3ccccc3)CC2)c(=O)c2cc(S(=O)(=O)N3CCCC3)ccc21 |  | inactive: -0.295% |
| Cc1cccc(Cc2c(C)nc3c(C(=O)N4CCN(Cc5ccc6c(c5)OCO6)CC4)cnn3c2C)c1 | active: 18.4 µM |  |
| O=C(Nc1nnc(S(=O)(=O)N2CCCCCC2)s1)c1ccc(Br)cc1 |  | inactive: 0.408% |
| CCC(=O)NC(c1cc(Cl)c2cccnc2c1O)c1cccn1C (stereo not drawn) | active: 25.9 µM |  |
| CNC(=O)c1ccsc1NC(=O)c1ccc(S(=O)(=O)N2CCc3ccccc32)cc1 | active: 16.4 µM |  |

| Compound | Potency | activity change, negative = inhibition |
| --- | --- | --- |
| CC(=O)c1c(C)n(CC(=O)NCc2ccc3c(c2)OCO3)c2ccccc12 | active: 5.8 µM |  |
| CCC1CN(S(=O)(=O)c2cc(-c3cc(C)no3)ccc2OC)c2cc(C)ccc2O1 (stereo not drawn) |  | inactive: 0% |
| CC(=C/c1ccco1)/C=N/N1CCN(c2ccccc2)CC1 |  | inactive: 5.31% |
| C#Cc1ccc([C@H]2C=C(C(=O)N3CCN(Cc4ccccc4)CC3)O[C@@H](OCC)[C@@H]2CCCO)cc1 |  | inactive: -14.1% |
| CCOc1ccc(NS(=O)(=O)c2ccc3c(c2)CCN3C(C)=O)cc1 |  | inactive: -8.31% |
| O=c1cc(-c2ccccc2)nc2cc(-c3ccc(F)cc3)[nH]n12 |  | inactive: 2.63% |
| Cc1cccc(NC(=O)c2nc[nH]c2C(=O)N[C@@H](C)c2ccccc2)c1 |  | inactive: -29.5% |
| CCN1C(=O)/C(=C\N(C)C)c2ccccc21 |  | inactive: 7.13% |
| C=CC[C@@H](CC(=O)N[C@@H](CO)Cc1ccccc1)C(=O)N[C@@H](COC(=O)[C@@H](CC=C)CC(=O)OC(C)(C)C)Cc1c[nH]c2ccccc12 |  | inactive: 5.14% |
| O=c1c2ccccc2sn1-c1ccc(S(=O)(=O)N2CCCCC2)cc1 | inactive |  |
| O=S(=O)(c1ccccc1F)N1CCC(Oc2ccc(-n3cnnn3)cc2)CC1 |  | inactive: -0.325% |
| O=C(NCc1ccccc1)C1=C[C@H](c2ccc(C(F)(F)F)cc2)C[C@H](OCc2ccc(CO)cc2)O1 |  | inactive: -1.71% |
| CCOC(=O)/C(C#N)=C/c1c(OCC)n(CC)c2ccccc12 |  | inactive: -5.61% |
| O=C(C1CCCN(S(=O)(=O)c2cccc3nonc23)C1)N1CCN(c2cccc(Cl)c2)CC1 (stereo not drawn) |  | inactive: 2.64% |
| CCc1ccc(NC(=O)C(NS(=O)(=O)c2cccc3nsnc23)c2ccccc2)cc1 (stereo not drawn) |  | inactive: -10.1% |
| CCc1nn(CC(=O)NCCCN2CCN(CC)CC2)c(=O)c2cc3occc3n12 |  | inactive: 1.71% |
| CCc1cccc(NS(=O)(=O)c2ccc(-n3cccn3)cc2)c1 |  | inactive: -2.46% |
| CCn1cc(C(=O)N2CCN(c3cccc(Cl)c3)CC2)c2cc(OC)c(OC)cc2c1=O |  | inactive: -11.7% [at 9.27 µM] |
